Hit rate of the full screen: of about 48,000 compounds, about 120 (0.25%) were called active. Inconclusive results (about 4%) are left out. Calls come from the whole dose curve; as a rule, active = well fitted activation curve with a large enough effect; inconclusive = small, poorly fitted or top-dose-only effect, or another doubt; inactive = no such curve, though single readings can be large or run the other way. Some of the results follow.
assay: Primary qHTS for Identification of Small Molecule Activators of Huntingtin-Antisense Promoter Activity; conditions: HEK293 HTT-AS promoter firefly luciferase reporter (activity 0% = vehicle and -100% = no light), 24 h; series mostly up to 57.5 µM; activity change, positive = activation: at the top concentration; note: nearly all actives have a fitted effect of over 55% in size
Summary of the method: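 HEK293 luciferase promoter-reporter cells (2,500/well) plated 24 h, then compounds added at up to 57.5 uM final for 24 h at 37 °C. Firefly luminescence by Dual-Glo, normalized to vehicle (0%) and zero RLU (-100%).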

Activity change, positive = activation, inactive:
Cc1cccc(N2CCN(C(=O)c3cccn4c(=O)c5cc(Cl)ccc5nc34)CC2C)c1 (stereo not drawn) -26.8%, CC(C)(CO)[C@@H](O)C(=O)NCCCO -1.96%, O=C(CSc1nnc(-c2cccc(Cl)c2)o1)N1CCc2ccccc21 -5.65%, COc1ccc(C2C=C(c3cccc(OC)c3)Nc3c(C(=O)Nc4ccccc4)cnn32)cc1 (stereo not drawn) -28%, CCn1c2c(c(=O)n3ncc(C(=O)Nc4cc(Cl)ccc4C)c13)CN(Cc1ccc(OC)cc1)CC2 -34.7%, Cc1ccn2c(Nc3ccc(C(C)C)cc3)c(-c3cccs3)nc2c1 -37.2%, COc1cc(OC)c(NC(=O)C2=C(C)C(=O)OC23CCCCCC3)cc1Cl -20.1%, CC(C)C[C@H](NC(=O)CNC(=O)c1cc(Cl)ccc1Cl)B(O)O -48.6%, CC(C)CN(CCCNC(=O)c1cc(=O)[nH]c2ccc(S(=O)(=O)N3CCCCCC3)cc12)CC(C)C 21%, CC(=O)N1c2nc(C(C)C)nn2C2(CCCCC2)[C@@H]2CCCC[C@@H]21 -13.5%, CCOc1ccc2oc(=O)cc(CN3CCN(c4cc(C)ccc4C)CC3)c2c1 -11.8%, CCc1ccc(NC(=O)CN2CCCN(Cc3cccc(Cl)c3)S2(=O)=O)cc1 -26.2%, COC(=O)c1cc2sc(C)cc2n1CC(=O)Nc1ccc(C)c(C)c1 -9.73%, CCOc1ccc(NC(=O)c2cc(S(=O)(=O)N3CCCCCC3)cn2C)cc1 -7.78%, Cc1c2cnn(-c3ccccc3)c(=O)c2c(C)n1CC(=O)NCCc1ccc(Cl)cc1 -9.12%, COc1ccc2c(c1)c1c(c(=O)n(-c3ccc(F)c(Cl)c3)c(=O)n1CC(=O)N1CCCC1)n2C -2.73%, CC(=O)N1CCc2c(sc3c2c(=O)n(-c2ccccc2)c(=O)n3CC(=O)Nc2ccccc2)C1 -14.5%, COc1cc(CNC(=O)c2ccc3c(c2)N(C)C(=O)C2CCCCN32)cc(OC)c1OC (stereo not drawn) -17.8%, CCC1CN(C(=O)N2CCC(C(=O)N3CCN(c4cccc(C)c4C)CC3)CC2)c2ccccc2O1 (stereo not drawn) -45.6%, Cc1ccc(Cl)cc1NC(=O)CCC(=O)N1CC(C)Sc2ccccc21 (stereo not drawn) -18.3%, O=C(NCCc1ccc(Cl)cc1)C1CCN(c2ncnc3c2nc2n3CCCCC2)CC1 -19.3%, Cc1ccc(-n2c(=O)c3c4c(sc3n(CC(=O)c3ccc(Cl)cc3)c2=O)CCC4)cc1C -3.7%, CN(Cc1ccco1)C(=O)c1ccc2c(c1)N(Cc1ccccc1F)C(=O)c1ccccc1S2 -32.2%, Cc1ccc(S(=O)(=O)Cc2ccc(C(=O)N3CCN(c4cccc(C)c4C)CC3)o2)cc1 -41.2%, COc1ccc(C(=O)OCc2cc(=O)n3nc(-c4cccs4)sc3n2)cc1 5.23%, CCC(Cn1nnc2ccccc2c1=O)NC(=O)Nc1cccc(C)c1C (stereo not drawn) -1.96%, Cc1ccc(NC(=O)C2CCCN(c3nnc(C)c4c(C)n(-c5ccccc5)nc34)C2)c(Cl)c1 (stereo not drawn) -6.63%, O=[N+]([O-])c1cc(-c2nc(-c3ccccc3)no2)ccc1N1CCCCC1 -83.8%, CCC(=O)N1CCc2cc(Br)cc(S(=O)(=O)CCC(=O)N3CCN(c4cccc(C(F)(F)F)c4)CC3)c21 -18.5%, CC1=C(C(=O)Nc2ccccc2)C(c2ccncc2)n2nc(SCc3ccccc3Cl)nc2N1 (stereo not drawn) -20.6%, O=C(Cn1c(=O)n(Cc2ccco2)c(=O)c2ccccc21)Nc1ccc(Cl)cc1Cl -16.3%, O=C(O)c1ccc(CNCc2ccc(Cl)cc2)s1 -20.4%, Cc1ccc2nc(Nc3cccc(Cl)c3C)c(-n3nc(C)cc3C)nc2c1 -1.36%, CC(C)CN(C(=O)c1cccc(S(=O)(=O)N2CCCCC2)c1)C1CCS(=O)(=O)C1 (stereo not drawn) 0.381%, CCOC(=O)c1ccc(NC(=O)Cn2c(=O)n(-c3ccc(C)cc3)c(=O)c3c2cnn3C)cc1 -15.2%, Cc1ccccc1NC(=O)Cn1c(SCC(=O)Nc2ccc(F)cc2)nc2ccccc21 -23.6%, Cc1c(-c2nc(-c3ccc4c(c3)OCO4)no2)nnn1-c1ccc(Br)cc1F 12.7%, Cc1ccc(CNC(=O)Cc2c(C)c3cc4c(C)coc4cc3oc2=O)cc1 -2.08%, O=C(COc1ccccc1Cl)OCc1cc(=O)n2nc(-c3cccs3)sc2n1 8.29%, CCOC(=O)c1c(NC(=O)c2nc(SCC)ncc2Cl)sc(C(C)=O)c1C 4.4%, COc1ccc([C@@H]2CC(=O)c3c(O)cc(O[C@@H]4O[C@H](CO[C@@H]5O[C@@H](C)[C@H](O)[C@@H](O)[C@@H]5O)[C@@H](O)[C@H](O)[C@@H]4O)cc3O2)cc1O, CCN(c1ncnc2c1cnn2-c1ccc(C)cc1)C1CCCCC1 -73.3%, Cc1cc(Nc2ccc(C)c(Cl)c2)n2nc(Cc3ccccc3)nc2n1 -26.2%, COCCn1c(=O)[nH]c2cc(C(=O)NCc3ccccc3Cl)ccc2c1=O -18.7%, CCOc1ccc(NC(=O)c2c(Nc3ccc(OC)cc3OC)sc(C(=O)c3ccc(Cl)cc3)c2N)cc1 -9.4%, CCOc1ccc(NC(=O)CSc2nc(-c3ccc(OC)cc3)nc3c2Cc2c(CO)cnc(C)c2O3)cc1 -5.94%, CC[C@H]1CN2CCc3cc(OC)c(OC)cc3[C@@H]2C[C@@H]1C[C@H]1NCCc2cc(OC)c(OC)cc21 -38.5%, CCOC(=O)c1cccc(NC(=O)c2cc3sccc3n2Cc2ccc(Cl)cc2)c1 -7.09%, CCOc1ccc(CCNC(=O)CCc2cn(Cc3ccccc3F)c3ccccc23)cc1OCC -22.3%, CCC[C@H]1C[C@H](C(=O)N[C@@H]([C@@H]2O[C@@H](SC)[C@@H](O)[C@@H](O)[C@@H]2O)[C@H](C)Cl)N(C)C1 -5.95%, CC(C)(C)c1ccc(S(=O)(=O)NCc2ccc3c(c2)CCN3C(=O)c2ccccc2)cc1 -44.9%, O=C(Cn1c(=O)ccc2cc(S(=O)(=O)N3CCCC3)ccc21)NCc1ccc(Cl)cc1 -16.3%, O=C(c1ccc(Cl)cc1)N1CCC(c2ccncc2)CC1 -30.4%, CCN(CC)S(=O)(=O)c1ccc2nc(NC(=O)c3cccnc3)sc2c1 -11.3%, COc1cc(-c2noc(-c3ccc(N4CCN(C)CC4)c([N+](=O)[O-])c3)n2)cc(OC)c1OC -7.58%, CCOC(=O)c1cc(S(=O)(=O)NCc2ccccc2)[nH]n1 -6.68%, CCC(CO)NC(=O)C(=O)Nc1c2c(nn1-c1ccc(F)cc1)CSC2 (stereo not drawn) -16.9%, CCOc1ccc(CCNC(=O)c2ccc3c(c2)c(C)c(C)n3C)cc1 -12.8%

Source: PubChem BioAssay AID1508624 (National Center for Advancing Translational Sciences (NCATS), 2021)
